From article PMC4822137, “Proteasomes generate spliced epitopes by two different mechanisms and as efficiently as non-spliced epitopes” (Scientific Reports, 2016)

Legend:
[1] = test system: HeLa cells / K631 1C CTL clone; assay: CTL assay (IFN-γ ELISA), presentation by transfected HeLa cells
[2] = molecular target: HLA-A*03:01 complex on the cell surface of T2 (Homo sapiens, UniProt P04439); assay: HLA-A*03:01-peptide binding affinity by flow cytometry, T2 cells; details: HLA-A*03:01-transfected T2, different peptide concentrations, FACS (MFU)
[3] = test system: HLA-A*03:01 complex on the cell surface of HeLa; assay: HLA-A*03:01-peptide binding affinity by flow cytometry, HeLa cells; design: species or system human; details: HLA-A*03:01-transfected HeLa, pulsed with 100 μM peptide, FACS (MFU)

Compound | effect on gp100mel47–52/40–42 presentation, epoxomicin ([1]; epoxomicin 250 nM, 2 hrs, E:T 1:1 p = 0.002, 2:1 p = 0.001, 4:1 and 8:1 p < 0.001) | binding to HLA-A*03:01 complex on T2 [2] | binding to HLA-A*03:01 complex on HeLa [3] | condensation in cellulo / presentation from HA-Ub/gp100mel40–52 ([1]; HeLa HLA-A*03:01+ transfected with HA-Ub/gp100mel40–52, K631 1C CTL, IFN-γ ELISA, E:T 1:1 p = 0.003, 2:1 p = 0.050) | presentation from full-length gp100mel, HeLa ([1]; HeLa transfected with HLA-A*03:01 and gp100mel-myc/His, proteasome-dependent)
CC[C@H](C)[C@H](NC(=O)[C@H]([C@@H](C)CC)N(C)C(C)=O)C(=O)N[C@H](C(=O)N[C@@H](CC(C)C)C(=O)[C@@]1(C)CO1)[C@@H](C)O [epoxomicin, reference compound] | Significant differences |  |  |  | 
[QLYPEW][RTK] [gp100^mel47–52/40–42] |  | bound the HLA-A*03:01 complex | bound the HLA-A*03:01 complex | proteasomes could indeed also perform a condensation reaction in cellulo | efficiently presented
